Hit rate of the full screen: of about 2,300 compounds, about 330 (14%) showed activity.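 The calls were made as follows: active = median modified Z-score above 1.96; inactive = 1.96 or below.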 Only a part is listed here, and it is no random draw.

The assay has as its system HepG2 Srxn1-GFP reporter cells (+30 nM CDDO-Me). As to the kind of experiment: Srxn1-GFP intensity median modified Z-score relative to plate median; higher = stronger NRF2 / oxidative stress reporter activation, active = hit call of the paper. The following applies: 10 µM; exposure time: 24h. In short, it runs like this:
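Per-cell cytoplasmic GFP was measured on confocal images of formaldehyde-fixed, Hoechst-stained HepG2 Srxn1-GFP BAC reporter cells, excluding images with fewer than 100 cells. Before this, the cells (20,000 per well, 96-well plates) were co-exposed for 24 h to compound at 10 μM and an NRF2 activator at 30 nM with ≤0.1% DMSO, in three replicate plates. Each value is the median over replicates of the per-plate modified Z-score of GFP intensity. That score was scaled with 1.4826 × median absolute deviation.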
For `CC(=O)NS(=O)(=O)c1ccc(NC(=O)c2ccccc2C(=O)O)cc1` [euspeclibcmpd1007], the “Srxn1-GFP intensity median modified Z-score” value is inactive: -0.557. As for `COC(=O)C[C@H]1C(C)(C)C2(O)OC34CC2C(=O)[C@]1(C)C3CC[C@]1(C)C4=CC(=O)O[C@H]1c1ccoc1` (some centres not stated) [euspeclibcmpd1512], the “Srxn1-GFP intensity median modified Z-score” value was inactive: -0.229.

Turning to `CC(=O)O[C@H]1CC2CCC3C(CC[C@@]4(C)C3C[C@H]([N+]3(C)CCCCC3)[C@@H]4OC(C)=O)[C@@]2(C)C[C@@H]1N1CCCCC1` (some centres not stated) [euspeclibcmpd853], the “Srxn1-GFP intensity median modified Z-score” value is inactive: -0.182. Consider `CC(S)C(=O)NCC(=O)O` (configuration not stated) [euspeclibcmpd1253], for which the “Srxn1-GFP intensity median modified Z-score” value is inactive: -0.0566. Consider `COc1ccc(OC)c(C(O)CNC(=O)CN)c1` (configuration not stated) [euspeclibcmpd558], for which the “Srxn1-GFP intensity median modified Z-score” value is inactive: 0.451. Consider `CC=C(C1=CC(=O)C(OC)=CC1=O)c1ccc(OC)cc1` [euspeclibcmpd1441], for which the “Srxn1-GFP intensity median modified Z-score” value was active: 5.77. In the case of `CC(C)(C)NCC(O)COc1cccc2c1CCC(=O)N2` (configuration not stated) [euspeclibcmpd864], the “Srxn1-GFP intensity median modified Z-score” value was inactive: -0.0151. In the case of `CC(=O)NCCCS(=O)(=O)O` [euspeclibcmpd2115] it was inactive: 0.202; in that of `O=C(C1CCCCC1)N1CC(=O)N2CCc3ccccc3C2C1` (configuration not stated) [euspeclibcmpd240], inactive: 0.445. In the case of `COc1ccc2c(c1)c(CC(=O)O)c(C)n2C(=O)c1ccc(Cl)cc1` [euspeclibcmpd160] it was inactive: -0.0155. In the case of `CN1CCC(=C2c3ccccc3CCc3cccnc32)CC1` [euspeclibcmpd358] it was inactive: 0.77; in that of `OC[C@H]1O[C@H](O[C@]2(CCl)O[C@H](CCl)[C@@H](O)[C@@H]2O)[C@H](O)[C@@H](O)[C@H]1Cl` [euspeclibcmpd1232], inactive: -0.465; in that of `Cc1c(C(=O)O)c(O)cc2c(O)c3c(O)c(O)c(C4O[C@H](CO)[C@@H](O)[C@H](O)C4=O)c(O)c3c(O)c12` (some centres not stated) [euspeclibcmpd1436], inactive: -0.693. As for `COc1c(CC(=O)c2cc3c(cc2O)OC(C)(C)C(O)C3)ccc2c1C=CC(C)(C)O2` (configuration not stated) [euspeclibcmpd1608], the “Srxn1-GFP intensity median modified Z-score” value was active: 7.77.

Consider `CCOC(=O)COc1ccc2c(=O)cc(-c3ccccc3)oc2c1` [euspeclibcmpd1189], for which the “Srxn1-GFP intensity median modified Z-score” value is inactive: -0.365. For the compound `CCC(C)[C@H]1O[C@]2(C=C[C@@H]1C)C[C@@H]1C[C@@H](C/C=C(\C)[C@@H](OC3C[C@H](OC)C(O[C@H]4C[C@H](OC)[C@@H](O)[C@H](C)O4)[C@H](C)O3)[C@@H](C)/C=C/C=C3\CO[C@@H]4[C@H](OC)C(C)=CC(C(=O)O1)[C@]34O)O2` (some centres not stated) [euspeclibcmpd1403], the “Srxn1-GFP intensity median modified Z-score” value is active: 5.69. Take `C[C@](N)(Cc1ccc(O)c(O)c1)C(=O)O` [euspeclibcmpd194]: the “Srxn1-GFP intensity median modified Z-score” value is inactive: -0.447.

(Values after the supplement of paper PMC10498489.)
